Test results: the RNAGym collection of RNA variant scans (doi:10.1073/pnas.2313332121)
This sample is rich in variants without activity.

B1: TPR 5TU (parent)
chain: GGAUCUUCUCGAUCUAACAAAAAAGACAAAUCUGCCACAAAGCUUGAGAGCAUCUUCGGAUGCAGAGGCGGCAGCCUUCGGUGGCGCGAUAGCGCCAACGUUCUCAACUAUGACACGCAAAACGCGUGCUCCGUUGAAUGGAGUUUAUCAUG

Variants of: B1
Test: polymerase ribozyme fitness, log enrichment relative to wild type (log ratio); higher = more active; in vitro selection for triplet polymerase activity
Outline: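 In triplicate, a single round of in vitro selection was run on each mutant library, PCR-built and transcribed, covering one subunit of a heterodimeric triplet polymerase ribozyme. Frozen incubation at −7 °C followed annealing with a biotinylated primer, partner subunit and triplets, and extended constructs were then gel-excised, streptavidin-captured and taken through RT-PCR. Fitness is the logarithm of genotype enrichment over wild-type enrichment, from inverse-variance-weighted replicate averages of Illumina-sequenced inputs and outputs. […] only genotypes with ≥10 input reads and ≥1 read per output were kept.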

Variant | polymerase ribozyme fitness (log ratio)
G50A G83C C93G A97C C132G A137G G140U | ≤ -4.2
G50A G83C U146G | -2.55
G50A G84A | -2.43
G50A G84A C95G U146C | -0.861
G50A G84A U101C G117C U146G | -0.884
G50A G86C C125G G126A | ≤ -4.2
G50A G92A | ≤ -4.2
G50A G94C C95G U144C | ≤ -4.2
G50A U53A A66U | ≤ -4.2
G50A U53C U56A A91U G94C A142C | ≤ -4.2
G50A U55A C87G C103U C116G | ≤ -4.2
G50A U55A C95A | -1.86
G50A U56A C93A U127G A150U | ≤ -4.2
G50A U56C | -1.2
G50A U77G C95U C105A C149A | ≤ -4.2
G50A U78G A91G A113C C131U G152C | ≤ -4.2
G50A U82C | -0.783
G50A U90C C96G A115U | ≤ -4.2
G50A U134A | -3.21
G50C A52C | -2.71
G50C A52C C54U G59U A60C C72A A91U C125A | ≤ -4.2
G50C A52C C54U G88A C96G | ≤ -4.2
G50C A52G C57U C93A | ≤ -4.2
G50C A52G C76G G83A C87G G100U U145A | ≤ -4.2

Variant | polymerase ribozyme fitness (log ratio)
G50C A52G U90G G94A G136C | ≤ -4.2
G50C A60C U78C G94U A98U C118A | ≤ -4.2
G50C A64U C103A G141U | ≤ -4.2
G50C A66C C93U U139G U148C | ≤ -4.2
G50C A122G G136A G140U | ≤ -4.2
G50C A142U | -3.9
G50C C54G G84C C125A | ≤ -4.2
G50C C54G U56C G94U A106G | ≤ -4.2
G50C C54U C85U C125U | -4.17
G50C C54U C103A | ≤ -4.2
G50C C54U G94U G140C A147U | ≤ -4.2
G50C C54U U55C C85G A142C | ≤ -4.2
G50C C57G C95A A115C | ≤ -4.2
G50C C57U C79U C85U C149U | ≤ -4.2
G50C C63G C85U C93A | ≤ -4.2
G50C C63G G94C C103A C132U | -4.08
G50C C72A G74A A91C C149A | ≤ -4.2
G50C C72A U78C G88C A91U G92A C125U G141A G143U | ≤ -4.2
G50C C76U C85U C116G | -2.09
G50C C85A C95G G117A G140A | ≤ -4.2
G50C C85G | ≤ -4.2
G50C C87G C114A A115G | ≤ -4.2
G50C C87U C103G A121G C123U C125G | ≤ -4.2
G50C C93U U104G G136U G141A | ≤ -4.2

Variant | polymerase ribozyme fitness (log ratio)
G50C C103A C149U | ≤ -4.2
G50C C116A G140A | ≤ -4.2
G50C C118G G140A | ≤ -4.2
G50C G58A A60C C87G G133U | ≤ -4.2
G50C G58A A60C G71U A89G G92C G128C | ≤ -4.2
G50C G58A C87U U104G | ≤ -4.2
G50C G59A U145C | -3.51
G50C G59C G83A | -3.91
G50C G65U C85A | ≤ -4.2
G50C G67A G86C A91U U139A | ≤ -4.2
G50C G71U A121G | ≤ -4.2
G50C G86C C95A C105A C125G | ≤ -4.2
G50C G86U A119C | ≤ -4.2
G50C G92A C116U U151C | ≤ -4.2
G50C G141U | -2.26
G50C U53A C96U U139A A150C | ≤ -4.2
G50C U55A | -3.29
G50C U55G C63A C76G A91G C125G U145C | ≤ -4.2
G50C U82A G136C | ≤ -4.2
G50C U104C C116A G143U | ≤ -4.2
G50C U104G | ≤ -4.2
G50C U130C | -1.3
G50U A52G | -0.0259
G50U A52G C75A C85A G92C G126U G128A A147U | ≤ -4.2

Variant | polymerase ribozyme fitness (log ratio)
G50U A52U G84U A89G G92C | ≤ -4.2
G50U A66C C76U U82G A89G A138U | ≤ -4.2
G50U A120U C125G | -0.502
G50U A122G | -0.236
G50U C51G G83A U90A G92C A98U U109A | ≤ -4.2
G50U C54G A150U | -2.15
G50U C57U C76A C103G A147C | ≤ -4.2
G50U C57U G92C | -0.983
G50U C75G C87A | ≤ -4.2
G50U C79A C103G | ≤ -4.2
G50U C79A C114U U127A | ≤ -4.2
G50U C79G A91U C108U U134C | ≤ -4.2
G50U C79U G84A C103U | ≤ -4.2
G50U C87G G112A | ≤ -4.2
G50U C87U U135G G141U | ≤ -4.2
G50U C93U | -2.05
G50U C95G | -0.905
G50U C95G U151A | ≤ -4.2
G50U G58U A89G G140C | ≤ -4.2
G50U G70A C93U U104G | ≤ -4.2
G50U G71C U77C | ≤ -4.2
G50U G81A U102G | -2.74
G50U G83A | -0.347
G50U G83C | -0.813

Variant | polymerase ribozyme fitness (log ratio)
G50U G84A A91U C116A | ≤ -4.2
G50U G86A C93U C96U | -0.529
G50U G92A | -2.93
G50U G92A G136U | ≤ -4.2
G50U G92U A106U A110G U127G | ≤ -4.2
G50U G94A A113G A147C | -3.89
G50U G126A G141C | -4.02
G50U U55A C96U | -0.864
C51A A52G | -0.455
C51A A52G C57U C79U C85G G88U C108G A115U | ≤ -4.2
C51A A52G G83U A150G | ≤ -4.2
C51A A52U C63U C99G A106C A119G G126U | ≤ -4.2
C51A C57G G67U C95U U101G | ≤ -4.2
C51A C57U U146G | -1.67
C51A C63U C85A G126A C129A G140A | ≤ -4.2
C51A C75U | -2.27
C51A C76U C87A | ≤ -4.2
C51A C79A C99U | ≤ -4.2
C51A C85A G141A | -1.93
C51A C85A U134C | -2.88
C51A C85G U151C | ≤ -4.2
C51A C87A G141U A150G | ≤ -4.2
C51A C95U C118U U135A | -2.41
C51A G58A G74A C95U U109A G136A | ≤ -4.2

Variant | polymerase ribozyme fitness (log ratio)
C51A G58C | -2.22
C51A G68A U78A C87G | ≤ -4.2
C51A G74A | ≤ -4.2
C51A G74A C95U U102G C108G U111G | ≤ -4.2
C51A G84A U144A | -2.52
C51A G86U C108G A137C | ≤ -4.2
C51A G100U U102G | ≤ -4.2
C51A U53A C54A G81C A122C U134G | ≤ -4.2
C51A U53G G86A | ≤ -4.2
C51A U55A C87A | ≤ -4.2
C51A U55A G68C C99G G140A | ≤ -4.2
C51A U56A C76G G143A C149G | ≤ -4.2
C51G A64C C69U G80A G86A C96U C114A | ≤ -4.2
C51G A73U C93G C131A | ≤ -4.2
C51G C54A G83U C85G C114U U151C | ≤ -4.2
C51G C57A C69G G133U | ≤ -4.2
C51G C57A G83C C87A C96A | ≤ -4.2
C51G C57A G88C | ≤ -4.2
C51G C57A G94U A115C U130C G143U | ≤ -4.2
C51G C57G G88A C116U G136U U148A | ≤ -4.2
C51G C85G U90A C108A A113G G133U A150U | ≤ -4.2
C51G C85U | -1.91
C51G C87A | ≤ -4.2
C51G C95G U139A G140U A150C | ≤ -4.2

Variant | polymerase ribozyme fitness (log ratio)
C51G C95U C105U A142C | ≤ -4.2
C51G G70A G71A C114A A142C U146A | ≤ -4.2
C51G G74A C79G G86U C87U | ≤ -4.2
C51G G74U C79A G100C G124C | ≤ -4.2
C51G G84U | -3.11
C51G G86U A142C G143C | ≤ -4.2
C51G U56A | -2.67
C51G U56A A89U A119C C129U | ≤ -4.2
C51U A52C U82G U135G | -3.54
C51U A52G A60U A66G C103U A107U C114U C123G G143A | ≤ -4.2
C51U A60G C87A U135A | ≤ -4.2
C51U A66C C85G C108G C132U | ≤ -4.2
C51U A66U G81A C87G | ≤ -4.2
C51U A73G C96G C123U | -0.999
C51U A73G G92U G124A | -0.37
C51U A73U C118G A119C | -1.81
C51U A89C C96U A142U | -2.78
C51U A89G A97G G143U | -3.43
C51U A107G | ≤ -4.2
C51U A150C | ≤ -4.2
C51U C54G C85U U104C A120G U127G U144C | ≤ -4.2
C51U C54U C76A G86A | -2.96
C51U C54U C85A A98U | -2.81
